Experimental data from publication PMC12136788.
Some of the results follow.

T1: UNK ZnF1-3 (human, UniProt Q9C0B0 31-174)
T1 sequence: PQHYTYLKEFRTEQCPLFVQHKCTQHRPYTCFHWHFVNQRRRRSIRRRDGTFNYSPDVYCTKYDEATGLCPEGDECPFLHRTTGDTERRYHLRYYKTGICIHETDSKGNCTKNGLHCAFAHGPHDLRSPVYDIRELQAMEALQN

B1: chr13:100200883:100200884:-_ENSMUSG00000052727_ENSMUST00000064762|mus_hu|FALSE|FALSE (ssRNA)
RNA: GGGAGUUCUACAGUCCGACGAUCGAUAUCAGAUUUUGGAGAGAGCUUCUCUCCUUCCAGACUUUGCACUUUUUCAGAGGUGAGUGAGGCAUAUAAGGACAUAUCUCUGGGAGGAGCAACAUCGGAUAGAGUAUCUUCUUGGAGCAACAGAGGAUUGAGCAUCA
B2: chr16:94690093:94690094:+_ENSMUSG00000040785_ENSMUST00000117648|mus_hu|mus_mus_mus_hu_True|88_88 (ssRNA)
RNA: GGGAGUUCUACAGUCCGACGAUCGGGCUGGGAUGACGGACACACAGAUCUUCCCAGAGGGGGAAAAAGUCUUAGUCGAUACUAAUUAAAAAGUGUUAAUGAUUUUUGAAAAUCAGAUUACAUCUAUAAAAGAUGAAAAGCAAACAACAGAGGAUUGAGCAUCA
B3: 107908216_107908336_2743_3pUTR_ENSMUSG00000034636_ENSMUST00000043616|mouse|control|control (ssRNA)
RNA: GGGAGUUCUACAGUCCGACGAUCUUUUUACAGAGCAAUAUAAAAUUACAUCGAGGUGGAGCUGAAGUCAAGUCAGCAGCCUUGCUCACCUGCAAGGAAGCCUGCGGAAGAGUGCGUGCAGCUUACCGUGAAACUGUAGAAUUUCAACAGAGGAUUGAGCAUCA
B4: chr3:176767854:176767855:-_ENSG00000177565_ENST00000430069|hu_hu|hu_hu_hu_mus_False|8_18 (ssRNA)
RNA: GGGAGUUCUACAGUCCGACGAUCGACAUCCUUGUUACUGGGCACGUCCUGCCCUCCUUCCCGUAUGCAGUGUCUAAGCACGAGCUGCGUAGGGCCACUCGUGCUGUUCUCACUGAGAUUCCAUAUUCUUGCUGUUGAGUCUCCCAACAGAGGAUUGAGCAUCA
B5: chr16:37883567:37883568:+_ENSMUSG00000034158_ENSMUST00000078717|mus_mus|FALSE|FALSE (ssRNA)
RNA: GGGAGUUCUACAGUCCGACGAUCUCGAUCCACACAGAGUACUUGCGCUCAGGAGGAGCAAUGAUCUUGAUCUUCAUGGUGCUAGGAGCCAGAGCAGUAAUCUCCUUCUGCAUCCUGUCAGCAAUGCCUGGGUACAUGGUGGUACAACAGAGGAUUGAGCAUCA
B6: chr17:65740002:65740003:+_ENSG00000130935_ENST00000581375|hu_hu|hu_hu_hu_mus_False|28_28 (ssRNA)
RNA: GGGAGUUCUACAGUCCGACGAUCAACAAAUCUUUCUUCCCUGGACGAACAGGAAGAUUCAUAUUAAAAAAAAUAUAUAUCCAUCAAGUUAGGUGUGGUGGCCACACAGAGCUCCAGAGCACUUUGGGAGGUGGAUCUCUGAGUCAACAGAGGAUUGAGCAUCA
B7: chr5:10264876:10264877:+_ENSG00000150753_ENST00000503026|hu_hu|FALSE|FALSE (ssRNA)
RNA: GGGAGUUCUACAGUCCGACGAUCAUAACUGUAGAUGCAUCACGAGACAUCCAUUUACUUAAUCACAGAAGUGGAUCUUGCUACAUAGUUUUCUCAAUGUCUUCAUUCUUCAGAUUCUCCAGGCUUACGAAUGUCAUCAAUCUUCAACAGAGGAUUGAGCAUCA
B8: 87705659_87706451_6146_CDS_ENSG00000163629_ENST00000511467|human|control|control (ssRNA)
RNA: GGGAGUUCUACAGUCCGACGAUCCAGCAGAGACUGGAUAACUUCAGCUUCUUGGGAAUCAUCAUAAAUGUCAUCUUCUUGUAUAUAAGAUUCUUUGGGCAGAGUCAAGUUUGGUGAUCCCUUUAUCUGAUAAGUAGAACAUUUCAACAGAGGAUUGAGCAUCA
B9: chr14:102551731:102551732:-_ENSG00000080824_ENST00000216281|hu_hu|FALSE|FALSE (ssRNA)
RNA: GGGAGUUCUACAGUCCGACGAUCCACAAUCUCCUUUAUUCUUCGUUCCUCCAAGUACUCAGUUUGGUCUUCUUUCAGGUGUAGGAUAACUUUUGUUCCACGACCCAUAGGUUCACCUGUGUCUGUCCUCACUGUGAAUGAUCCCAACAGAGGAUUGAGCAUCA
B10: chr5:92386950:92386951:-_ENSMUSG00000029397_ENSMUST00000031345|mus_hu|motif|central (ssRNA)
RNA: GGGAGUUCUACAGUCCGACGAUCCUGUUGGGCAUGUUGAAUUUUUUCACAGUUUAUGCACUGCACUUCCUUCACUUUAAAGCGAUCGGGUUGAUGAUCUUCAUUGUUAUCAUGACACAAGCGGCAAGUAUAAAGCUUGUCACACAACAGAGGAUUGAGCAUCA
B11: chr12:79978091:79978092:+_ENSMUSG00000021116_ENSMUST00000071230|mus_hu|FALSE|FALSE (ssRNA)
RNA: GGGAGUUCUACAGUCCGACGAUCGCUUUCCAGCUGCUCAUCCUUGGUGUAUUCUAACACCUCAGCAACAUGACGAAGAAUGCUAUAAACAGUUUUGGAUUUUGUGAAUUUGUCUUCACAUUUGAUUGCUUCCUCUGGAGAAACCAACAGAGGAUUGAGCAUCA
B12: chr13:96295345:96295346:-_ENSG00000134874_ENST00000376829|hu_hu|FALSE|FALSE (ssRNA)
RNA: GGGAGUUCUACAGUCCGACGAUCGCACCCAGAACCCUUACAAACUUGGGUCGGGGCUGCAUUCUGGGCUUUGGAGAGGCUAAAAUAUUUCUAGCAGCGACUUGUAGACCUCAGGCCUCUCAUUUCUAUGGGUCUUCUGGGGGCCAACAGAGGAUUGAGCAUCA
B13: 66220149_66220269_713_CDS_ENSMUSG00000038664_ENSMUST00000042824|mouse|control|control (ssRNA)
RNA: GGGAGUUCUACAGUCCGACGAUCCAUAGGAGGAAUCUUGCUUUCAUUUGCUAAAGACAAUGGAGGCAAAGAGCUCACAACUUCAAUUGCAGUAUGAAUAACGUCGUUGCAGAGACUGAGGCCAGGUCCCGACACAGGCAUCAUCAACAGAGGAUUGAGCAUCA
B14: 151522499_151524887_504_3pUTR_ENSMUSG00000034021_ENSMUST00000016569|mouse|control|control (ssRNA)
RNA: GGGAGUUCUACAGUCCGACGAUCUAUAAACAUAAAUAUAUCCUUUAGUUUAUCGGGAGACGUGUAAGGAGCCUCAGGAGCAUAAAUCCUGAAAAUAUCAGCAAGGCAGCAAGCCACCAGUAAACGAACAUCUUUAUCAGGAUGCAACAGAGGAUUGAGCAUCA
B15: chr10:73576327:73576328:-_ENSG00000197746_ENST00000394936|hu_mus|FALSE|FALSE (ssRNA)
RNA: GGGAGUUCUACAGUCCGACGAUCCCCACUGCCAGGCAGACGCUUCACUCAUGAGGUGAACAGGCAGGUCAACAAGAGCUACAGGUGGUGGGAAAGCCGUGCAGGACCCCAAACAGCCAGGCAGAGGCCACACGGUCAAGGGCCCAACAGAGGAUUGAGCAUCA
B16: chr1:46159212:46159213:+_ENSG00000159596_ENST00000372025|hu_mus|hu_hu_hu_mus_True|38_108 (ssRNA)
RNA: GGGAGUUCUACAGUCCGACGAUCUCUGAUCCCACCCAAGAAAGCUAGGAAACCGGCUCCAUAAGCCAUCUGAGUGAAAGCUAGGACGGGGAUAUAAGUUUUUGUCAUUACCAUGAGAAGUGGGGGAGCAGUAAAGGGGAUUAACAACAGAGGAUUGAGCAUCA
B17: chrX:71549762:71549763:+_ENSMUSG00000019087_ENSMUST00000019231|mus_mus|mus_mus_mus_hu_False|1_1 (ssRNA)
RNA: GGGAGUUCUACAGUCCGACGAUCAAACCCGUGUACUUCUUAUUGUUAGCACAACAUCACCAGAAAACGAUAACGACAGCCAAGCAGGACAGACAGUUAAGUAGUACUUCCACACUCCCAAACUCAGGGAGCCCUAUAGUUCAUCAACAGAGGAUUGAGCAUCA
B18: chr4:144460044:144460045:+_ENSG00000153147_ENST00000283131|hu_mus|hu_hu_hu_mus_False|78_78 (ssRNA)
RNA: GGGAGUUCUACAGUCCGACGAUCACGGUCCAUAGCCUGAAGAUCAACUUGCGGAUUCCAAUCAGAAUCAUAUAAAAUGACUACAUCAGCAGUUGCAAGAUUGAUGCCCAGACCACCAGCACGUGUGCUUAGCAUAAAUACAAACAACAGAGGAUUGAGCAUCA
B19: chrX:20248820:20248821:+_ENSMUSG00000001924_ENSMUST00000001989|mus_mus|mus_mus_mus_hu_True|78_108 (ssRNA)
RNA: GGGAGUUCUACAGUCCGACGAUCGGCAAAGUCAGUCACCACAAAGUCAGGUUCUGCCAGUGAUGCUACCAAGGAUUUAAAGCUAAUCUUCUUAGGUACUUUGACCUGACUGACGAUGCCUCCACGGAUGUAGUCGGAGAAGUUCAACAGAGGAUUGAGCAUCA
B20: chr11:87793471:87793472:-_ENSMUSG00000020483_ENSMUST00000020775|mus_mus|mus_mus_mus_hu_False|1_58 (ssRNA)
RNA: GGGAGUUCUACAGUCCGACGAUCUGGACUUGAAAAUAAAAGAAUAAGCUGGAUCCCCCACCCCCCCACAUUGUCAACCCUAUGCGAGAGUUUUGAAGGCGACUCAUGAAAAUCAGCAGCUCAAACGGCAAUGACCACCCACCCCAACAGAGGAUUGAGCAUCA
B21: chr9:95013113:95013114:-_ENSG00000196305_ENST00000443024|hu_hu|hu_hu_hu_mus_False|28_88 (ssRNA)
RNA: GGGAGUUCUACAGUCCGACGAUCCUCAGUCAGAAAGGGCGUGUAAGGAGCCAUAAGUCUGCACAGAGAAAGCAGGACACUGAACAGUGUCUCCAGAGCCAUGACACAAUCCUCCAUCCCACUCUCACCCUUUAACCUCCUCCUCAACAGAGGAUUGAGCAUCA
B22: 59226069_59226793_829_3pUTR_ENSMUSG00000028381_ENSMUST00000030074|mouse|control|control (ssRNA)
RNA: GGGAGUUCUACAGUCCGACGAUCCCAACCCCACUUUCUCUGUCAUCUGAUUCACCAUGUCAGUUAAUGUGUCUGGGAUGACUCUUAUUCCACUAUCACAAAUCCAUAUGAGAUCAUAUUUUGCAACUUCAUAUGCUGGCAUCACAACAGAGGAUUGAGCAUCA

Each binder was assayed against T1, UNK ZnF1-3 (assay: nsRBNS (natural sequence RNA bind-n-seq); RBNS binding buffer (assumed for nsRBNS): 25 mM Tris pH 7.5, 150 mM KCl, 3 mM MgCl2, 0.01% Triton X-100, 500 ug/ml BSA, 20 U/ml SUPERase-In, 4 C; UNK is unkempt and MSI1 is Musashi-1; names of the RNAs are library labels; protein concentration not given here; high values mean tight binding).

Binder	binding signal
B1	2.15 enrichment R
B2	1.76 enrichment R
B3	1.06 enrichment R
B4	0.386 enrichment R
B5	1.11 enrichment R
B6	2.02 enrichment R
B7	0.76 enrichment R
B8	0.985 enrichment R
B9	0.582 enrichment R
B10	0.472 enrichment R
B11	0.601 enrichment R
B12	0.939 enrichment R
B13	1.49 enrichment R
B14	1.74 enrichment R
B15	1.47 enrichment R
B16	1.11 enrichment R
B17	1.45 enrichment R
B18	1.25 enrichment R
B19	0.742 enrichment R
B20	1.91 enrichment R
B21	1.29 enrichment R
B22	0.983 enrichment R
